# Test results from ChEMBL document CHEMBL1201862, “PubChem BioAssay data set” (2004).
# System: NCI-H322M
# Test: NCI tumour cell line growth inhibition, 48 h
row,SMILES,GI50
1,CCCCn1cnc2c(SC)ncnc21,inactive: 37.9 µM
2,O=S(=O)(Nc1nccs1)c1ccc([As](=O)(O)O)cc1,inactive: > 100 µM
3,O=c1c2cc([N+](=O)[O-])cnc2sn1-c1ccc(Br)cc1,inactive: 29.4 µM
4,CCSc1cc2c(cc1O)CC[C@@H]1[C@@H]2CC[C@]2(C)[C@@H](O)CC[C@@H]12,inactive: 16.9 µM
5,O=C(O)c1nc2ccc(C(F)(F)F)cc2nc1Nc1ccc(Cl)c(Cl)c1,inactive: 14.4 µM
6,COc1ccc(/C=N\O[Si](C)(C)C(C)(C)C)cc1O[Si](C)(C)C(C)(C)C,inactive: 15.3 µM
7,COC(=O)NC(Nc1ccc(C)cc1)(C(F)(F)F)C(F)(F)F,inactive: > 100 µM
8,Cn1c2ccccc2c2ccc3c(c21)C(=O)c1ccc2c4ccccc4n(C)c2c1C3=O,inactive: > 100 µM
9,O=C(CN1CCCCC1)N1CCc2c([nH]c3ccccc23)C1c1cccnc1 (stereo not given),inactive: > 100 µM
10,CCN(CC)CCOCCn1c2c(c3ccccc31)CCCC2,inactive: 40 µM
11,O=C1C=CC2(C=C1)CCC(=O)O2,inactive: 18.7 µM
12,CC(C)[Si]1(C(C)C)OCC2OC3(CO)C(Oc4nc(=O)ccn43)C2O[Si](C(C)C)(C(C)C)O1 (stereo not given),inactive: 16.6 µM
13,C=CCCC(O)c1cc(C)c(O)c(C)c1 (stereo not given),inactive: > 100 µM
14,Cn1cnc(CCc2ccccc2)n1,inactive: > 100 µM
15,COc1ccc(/N=C2\C(=N/c3ccc(OC)cc3)N(c3ccc(N(C)C)cc3)C(=S)N2c2ccc(OC)cc2)cc1,inactive: > 80 µM
16,Nc1ncc2c(n1)-c1ccccc1OC2N1CCCCC1 (stereo not given),inactive: > 100 µM
17,CO/N=C1\CC(NC(=O)C(F)(F)F)c2ccsc21 (stereo not given),inactive: > 100 µM
18,Cc1ccc(NC(=O)OCC(COc2ccc(Cl)cc2Cl)OC(=O)Nc2ccc(C)cc2)cc1 (stereo not given),inactive: 7.94 µM
19,C[C@]12CC=CC(=O)[C@@]1(C)CCC(=O)C2,inactive: > 100 µM
20,CCOC(=O)/C=C(/C(=O)OCC)n1cc(C)c(=O)n(/C(=C/C(=O)OCC)C(=O)OCC)c1=O,inactive: 16 µM
21,CCCCc1c2c(nc3c1CCCC3O)CCCC2 (stereo not given),inactive: > 100 µM
22,Cc1ccc(/C=C2\CCCC(CN3CCCCC3)C2=O)cc1 (stereo not given),inactive: 16.1 µM
23,O=C1CC2(CCCc3sccc32)C(=O)N1 (stereo not given),inactive: > 100 µM
24,NC1CCC(c2cc3ccccc3s2)(N2CCCCC2)CC1 (stereo not given),inactive: 1.17 µM

row,SMILES,GI50
1,O=[N+]([O-])c1ccc2c(c1)OCCOCCOc1ccc([N+](=O)[O-])cc1OCCOCCO2,inactive: > 100 µM
2,COc1cc2c(c(OC)c1OC)-c1ccc(SC)c(=O)cc1C(CC(=O)Oc1cccc(C#N)c1)C2 (stereo not given),active: 0.449 µM
3,Cc1ccc(C2(c3ccc(C)cc3)SC(=C(C#N)C#N)c3ccccc32)cc1,inactive: > 100 µM
4,CCN(CC)C(=O)CCn1cc(F)c(=O)[nH]c1=O,inactive: > 100 µM
5,Cc1cc2c(cc1Cl)SC(NNCCO)=NS2(=O)=O,inactive: > 100 µM
6,CCCC(=O)Nc1cc([N+](=O)[O-])c([N+](=O)[O-])cc1OC,inactive: 13 µM
7,C/C(CCc1ccccc1)=N\NC(N)=S,inactive: > 100 µM
8,N=C(N)NNC(=O)CCCCCCCC(=O)NNC(=N)N,inactive: > 100 µM
9,[O-][S+](CCCl)c1c2ccccc2nc2ccccc12 (stereo not given),inactive: > 100 µM
10,CCOC(=O)C1CCCN1C(=O)c1ccccc1Cl (stereo not given),inactive: > 100 µM
11,CC(=O)Oc1cc(OC(C)=O)c2c(=O)c3ccccc3n(C)c2c1,inactive: 22.3 µM
12,CCOC(=O)c1cc2c3c(c(C(C)=O)c(O)c2[nH]1)N(C(C)=O)CC3,inactive: > 100 µM
13,N=c1oc2ccccc2cc1C(=O)NC12CC3CC(CC(C3)C1)C2,inactive: 22.2 µM
14,CN(C(=O)c1ccco1)C(=S)N1CCN(c2ccccc2)CC1,inactive: > 100 µM
15,COc1cc(COC(=O)NC(Cc2cccs2)C(=O)O)c([N+](=O)[O-])cc1OC (stereo not given),inactive: > 100 µM
16,O=C1OCC2OC(=O)c3cc(O)c(O)c(O)c3-c3c(O)c(O)c(O)c4c3C(=O)OC(C2OC(=O)c2cc(O)c(O)c(O)c2-c2c1cc(O)c(O)c2O)C1OC(=O)c2c-4c(O)c(O)c(O)c2[C@@H]1C(O)C(O)C(O)C(O)CO (stereo not given in full),inactive: 13.6 µM
17,COc1ccc(Cc2n[nH]c(Nc3ccc(Br)cc3)nc2=O)cc1OC,inactive: > 70.5 µM
18,CC(=O)O[C@@H]1[C@H]2O[C@H]2[C@H]2O[C@@]2(COC(=O)c2ccccc2)[C@H]1OC(C)=O,inactive: > 100 µM
19,CC(=O)OC1CC2(C)C(=CC1C1SCCS1)CCC1C2CCC2(C)C(OC(C)=O)CCC12 (stereo not given),inactive: > 100 µM
20,O=C(O[C@@H](/C=C/c1ccccc1)P1(=O)N(Cc2ccccc2)[C@@H]2CCCC[C@H]2N1Cc1ccccc1)c1ccccc1,inactive: 5.12 µM
21,CO[C@@H]1C=C[C@@]23c4cc5c(cc4C(=O)O[C@H]2CN(C)[C@H]3C1)OCO5,inactive: > 100 µM
22,Cc1nc(C)c(N2CCN(C#N)CC2)c(O)n1,inactive: > 100 µM
23,O=Cc1ccc(-c2ccc(-c3ccc(C=O)s3)o2)s1,inactive: 51.6 µM
24,CCOC(=O)c1nc2c(nc1C(=O)OCC)C(=O)c1ccccc1C2=O,inactive: 1.66 µM

row,SMILES,GI50
1,CCCC/C=C/C1Cc2ccccc2CN1S(=O)(=O)c1ccc(C)cc1 (stereo not given),inactive: 40.6 µM
2,CC(=O)C(N1CCCCC1)C(O)(C(F)(F)F)C(F)(F)F (stereo not given),inactive: > 100 µM
3,Cc1cc(Cl)ccc1NC(=O)C1C(=O)C(=O)N(c2ccc(Cl)cc2C)C1=O (stereo not given),inactive: > 100 µM
4,O=C1C2Cc3ccccc3CN2C(=O)N1CN1CCN(CN2C(=O)C3Cc4ccccc4CN3C2=O)CC1 (stereo not given),inactive: > 100 µM
5,Nc1ccccc1.O=C(O)C(C(F)(F)F)C(F)(F)F,inactive: 53.8 µM
6,Cc1ccc(C2=C(C#N)C(N)OC3=C2COc2ccccc23)cc1 (stereo not given),inactive: 2.99 µM
7,COCC12CCC(OC)C34C5CC6(O)C(OC)CC(OC(C)=O)(C5C6OC(=O)c5ccccc5)C(C(OC)C13)C4N(C)C2 (stereo not given),inactive: > 100 µM
8,O=C1NP23(OCCO2)Oc2ccccc2C3(C(F)(F)F)O1 (stereo not given),inactive: > 100 µM
9,CC(=O)O/C(C)=C\C(=O)O/N=C(\N)c1ccc(C)cc1,inactive: 88.5 µM
10,O=C1C(Cl)N(c2ccc(Cl)cc2)C1c1c[nH]c2ccccc12 (stereo not given),inactive: 16.4 µM
11,Cc1csc(/N=C(/NCCN2CCOCC2)Nc2nc(C)cs2)n1,inactive: > 100 µM
12,COc1cc2ccnc3c2c(c1O)N(C)C=C3,inactive: 17.4 µM
13,CC[C@@]1(O)C(=O)OCc2c1cc1n(c2=O)Cc2c-1nc1ccccc1c2/C=N/NC(=O)C[N+](C)(C)C,inactive: 19.7 µM
14,CCCCCC/C=C1\CCC(CN2CCOCC2)C1=O (stereo not given),inactive: 22.2 µM
15,O=C1[C@H](O)[C@@H]2CCC[C@@]23CCCN13,inactive: > 100 µM
16,COc1ccc(C2c3cc4c(cc3OC3(OC)COC(=O)C23)OCO4)c(OC)c1 (stereo not given),inactive: 31.8 µM
17,O=c1oc2c(ccc3c(O)cccc32)c2c1CCCC2,inactive: 27.8 µM
18,CSc1nc2c(nc(N)n2C2OC(CO)C(O)C(O)C2O)c(=O)[nH]1 (stereo not given),inactive: > 100 µM
19,COc1ccc(/N=N/C(=O)NC(Cc2ccccc2)C(=O)O)cc1 (stereo not given),inactive: > 100 µM
20,Cc1ccccc1C(=O)C1CCCCC1O (stereo not given),inactive: > 100 µM
21,COc1ccc(OCc2ccc3nc(-c4ccccc4)c(Cl)nc3c2)cc1,inactive: > 100 µM
22,O=C(/C=c1\oc(=O)/c(=C/C(=O)c2ccc(Cl)cc2)oc1=O)c1ccc(Cl)cc1,inactive: > 100 µM
23,NC(=O)c1ncn(CCN2CCN(C(=O)NCCCCCCNC(=O)N3CCN(CCn4cnc(C(N)=O)c4N)CC3)CC2)c1N,inactive: > 100 µM
24,CNC(=O)N(CCC#N)CCCN(C(=O)N(C)C)c1ccccc1,inactive: > 100 µM

row,SMILES,GI50
1,CCOC(=O)C1=CC(C)(C(=O)OCC)Nc2c(nc(SC)n(C)c2=O)N1 (stereo not given),inactive: > 10 µM
2,CCCCCCC(C)OC(=O)/C=C(\CC(=O)OC(C)CCCCCC)C(=O)OC(C)CCCCCC (stereo not given),inactive: > 100 µM
3,CN1COCN/C1=N/C#N,inactive: > 100 µM
4,O=C(c1ccccc1)c1c(C(=O)c2ccccc2)c(-c2ccccc2)c2c(-c3ccccc3)sc(-c3ccccc3)c2c1-c1ccccc1,inactive: > 100 µM
5,COC(=O)C1=CC(=O)[C@@H]2CCCC[C@H]12,inactive: > 100 µM
6,Cc1ccc(C[P+]2(c3ccccc3)CCCCC2)cc1.[O-][Cl+3]([O-])([O-])[O-],inactive: 46 µM
7,Nc1ccc(C(=O)Nn2c(-c3ccccc3)nc3ccccc3c2=O)cc1,inactive: > 100 µM
8,CCCCCCCC(=O)OCC1OC(n2cc(F)c(=O)[nH]c2=O)C(N)C(OC(=O)CCCCCCC)C1O (stereo not given),inactive: 18.9 µM
9,Cc1n[nH]c(C(F)(F)F)c1/N=N/N(C)C,inactive: 16.2 µM
10,O=C1CS(=O)(=O)C(c2cccc(Oc3ccccc3)c2)N1c1ccc(Cl)cc1 (stereo not given),inactive: 42.9 µM
11,Cn1cnc(N)c(N=O)c1=O,inactive: > 10 µM
12,CCOC(=O)Nn1c(C)cc(C(=O)OC)c1C,inactive: > 100 µM
13,Cc1n[nH]c(=O)n1/N=C/c1ccc([N+](=O)[O-])o1,inactive: 23.6 µM
14,c1csc(-c2ccc(-c3ccc(-c4cccs4)s3)s2)c1,inactive: > 100 µM
15,CC(C)(C)C[P+](C)(C)c1ccccc1,inactive: > 100 µM
16,Nc1nc(N)c2ncn(CC(CO)CC(c3ccccc3)P(=O)(O)O)c2n1 (stereo not given),inactive: > 100 µM
17,COc1cc(C(=O)O)ccc1OS(=O)(=O)O,inactive: > 100 µM
18,Cc1c(O)c(OC2OC(CO)C(O)C(O)C2O)cc2c1CC[C@@H]1C2(C)C(=O)C[C@]2(C)[C@@H]([C@@](C)(O)C3CCC(C)(C)O3)[C@H](O)C[C@@]12C (stereo not given in full),inactive: > 100 µM
19,CC1Oc2c(c(=O)oc3ccccc23)[C@@]1(C)CC1C[C@H](C)C(=O)O1 (stereo not given in full),inactive: > 100 µM
20,O=C(O)CCCc1ccc2ccc3ccccc3c2c1,inactive: > 100 µM
21,Oc1cc(-c2c[nH]c3ccccc23)nc2cc3c(cc12)OCO3,inactive: > 100 µM
22,C#C[C@]1(O)[C@@H](CO)O[C@@H](n2ccc(N)nc2=O)[C@@H]1O,active: 0.0286 µM
23,Cc1cc(C)cc(Nc2cc(O)nc(O)n2)c1,inactive: > 100 µM

#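 Interpolation was linear, between the two tested concentrations surrounding the appropriate level; five concentrations were tested over 48 hours in 96-well plates. GI50: concentration for 50% inhibition of growth.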 Calls of active or inactive are those of the source. Cut-off read from the data, not from the text of the source: active = GI50 up to about 1.1 µM and inactive = higher.
